Measurements reported in the supplement of paper PMC9938546.
Where a name gives a salt, the structure may show the parent alone. The list shows a part of the results. Repeats are few or missing, and single values can be far off.

system: HCT116-GFP; test: HCT116-GFP viability (GFP intensity) relative to untreated control, monoculture; higher = less cancer cell killing; conditions: culture: HCT116-GFP monoculture; 10 µM; 72 h
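Also: viability estimated indirectly by image-based GFP quantification with live-cell imaging of the constitutively GFP-expressing human colorectal cancer line, no immune cells added.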

Question: For `c1cnc(N2CCN(Cc3ccc4c(c3)OCO4)CC2)nc1` [Piribedil hydrochloride], which HCT116-GFP viability is on record?
Answer: 96.2%

Question: `C[C@](N)(Cc1ccc(O)c(O)c1)C(=O)O` [Methyldopa (L,-)] was tested. Which HCT116-GFP viability did it give?
Answer: 109%

Question: Which HCT116-GFP viability does the source give for `CCOC(=O)O[C@]1(C(=O)OCCl)CC[C@H]2[C@@H]3CCC4=CC(=O)C=C[C@]4(C)[C@H]3[C@@H](O)C[C@@]21C` [Loteprednol etabonate] here?
Answer: 82%

Question: `Cc1ccc(NC(=O)c2ccc(CN3CCN(C)CC3)cc2)cc1Nc1nccc(-c2cccnc2)n1` [Imatinib] was tested. Which HCT116-GFP viability did it give?
Answer: 90.8%

Question: Which HCT116-GFP viability does the source give for `CN[C@@H]1[C@H](O)[C@H](NC)[C@H]2O[C@@]3(O)C(=O)C[C@@H](C)O[C@H]3O[C@@H]2[C@H]1O` [Spectinomycin dihydrochloride] here?
Answer: 79.6%

Question: With `NS(=O)(=O)c1cc2c(cc1Cl)NC(C(Cl)Cl)NS2(=O)=O` (configuration not stated) [Trichlormethiazide] as the compound, how does the HCT116-GFP viability read?
Answer: 91.2%

Question: `C#Cc1cccc(Nc2ncnc3cc(OCCOC)c(OCCOC)cc23)c1` [Erlotinib] was tested. Which HCT116-GFP viability did it give?
Answer: 47.7%

Question: For `N[C@@H](C(=O)N[C@@H]1C(=O)N2C(C(=O)O)=C(Cl)CC[C@H]12)c1ccccc1` [Loracarbef], which HCT116-GFP viability is on record?
Answer: 91.4%

Question: `Cc1onc(-c2ccccc2Cl)c1C(=O)N[C@@H]1C(=O)N2[C@@H]1SC(C)(C)[C@@H]2C(=O)O` [Cloxacillin sodium salt] was tested. Which HCT116-GFP viability did it give?
Answer: 98.3%

Question: For `CC(C)Nc1cccnc1N1CCN(C(=O)c2cc3cc(NS(C)(=O)=O)ccc3[nH]2)CC1` [Delavirdine], which HCT116-GFP viability is on record?
Answer: 91.9%

Question: How did the HCT116-GFP viability turn out when `CN[C@@H]1[C@@H](O[C@H]2O[C@H](CO)[C@@H](N)[C@H](O)[C@H]2O)OC2C[C@@H](N)[C@@H](O[C@H]3[C@H](O)[C@@H](O)[C@H](N)C[C@@H]3N)OC2[C@@H]1O` (some centres not stated) [Apramycin] was run?
Answer: 107%

Question: How did the HCT116-GFP viability turn out when `Cc1c(-c2ccccc2)oc2c(C(=O)OCCN3CCCCC3)cccc2c1=O` [Flavoxate hydrochloride] was run?
Answer: 102%

Question: For `CC(C)(CO)C(O)C(=O)NCCCO` (configuration not stated) [Panthenol (D)], which HCT116-GFP viability is on record?
Answer: 100%

Question: For `CN(C)C/C=C(/c1ccc(Br)cc1)c1cccnc1` [Zimelidine dihydrochloride monohydrate], which HCT116-GFP viability is on record?
Answer: 110%

Question: Which HCT116-GFP viability does the source give for `CCOc1ccc2ccccc2c1C(=O)N[C@@H]1C(=O)N2[C@@H]1SC(C)(C)[C@@H]2C(=O)O` [Nafcillin sodium salt monohydrate] here?
Answer: 107%

Question: Which HCT116-GFP viability does the source give for `CCN(CC)CCNC(=O)c1cc(Cl)c(N)cc1OC` [Metoclopramide monohydrochloride] here?
Answer: 98.6%

Question: With `Cn1cnc2c1c(=O)[nH]c(=O)n2C` [Theobromine] as the compound, how does the HCT116-GFP viability read?
Answer: 91.9%

Question: How did the HCT116-GFP viability turn out when `O=C(N[C@H](CO)[C@H](O)c1ccc([N+](=O)[O-])cc1)C(Cl)Cl` [Chloramphenicol] was run?
Answer: 88.2%

Question: With `CCC[C@@H]1C[C@@H](C(=O)N[C@@H]([C@H]2O[C@H](SC)[C@H](O)[C@@H](O)[C@H]2O)[C@H](C)Cl)N(C)C1` [Clindamycin hydrochloride] as the compound, how does the HCT116-GFP viability read?
Answer: 84.9%

Question: Which HCT116-GFP viability does the source give for `Cc1ccc2c(c1)c1c3n2CCNC3CCC1` (configuration not stated) [Pirlindole mesylate] here?
Answer: 101%

Question: `C=C1/C(=C\C=C2/CCC[C@]3(C)[C@@H]([C@H](C)CCCC(C)C)CC[C@@H]23)C[C@@H](O)C[C@@H]1O` [Alfacalcidol] was tested. Which HCT116-GFP viability did it give?
Answer: 48.1%

Question: Which HCT116-GFP viability does the source give for `CC(C)[N+](C)(CCOC(=O)C1c2ccccc2Oc2ccccc21)C(C)C` [Propantheline bromide] here?
Answer: 103%

Question: With `CN(C)CCC=C1c2ccccc2COc2ccccc21` [Doxepin hydrochloride] as the compound, how does the HCT116-GFP viability read?
Answer: 95.9%

Question: With `Nc1ccccc1S(N)(=O)=O` [2-Aminobenzenesulfonamide] as the compound, how does the HCT116-GFP viability read?
Answer: 104%

Question: Which HCT116-GFP viability does the source give for `COc1ccccc1Oc1c(NS(=O)(=O)c2ccc(C(C)(C)C)cc2)nc(-c2ncccn2)nc1OCCO` [Bosentan] here?
Answer: 86.4%

Question: Which HCT116-GFP viability does the source give for `N=C(N)NC(=O)Cc1c(Cl)cccc1Cl` [Guanfacine hydrochloride] here?
Answer: 79.5%

Question: With `CC1CNc2c(cccc2S(=O)(=O)N[C@@H](CCCNC(=N)N)C(=O)N2CC[C@@H](C)C[C@@H]2C(=O)O)C1` (some centres not stated) [Argatroban] as the compound, how does the HCT116-GFP viability read?
Answer: 94.4%

Question: With `CN(C)CCN(Cc1ccccc1)c1ccccn1` [Tripelennamine hydrochloride] as the compound, how does the HCT116-GFP viability read?
Answer: 100%

Question: With `CN1C(=O)CC(c2ccccc2)C1=O` (configuration not stated) [Phensuximide] as the compound, how does the HCT116-GFP viability read?
Answer: 86.4%

Question: How did the HCT116-GFP viability turn out when `Nc1ccn([C@@H]2O[C@H](CO)[C@@H](O)C2(F)F)c(=O)n1` [Gemcitabine] was run?
Answer: 14.4%

Question: `CC(=O)O[C@@]12CO[C@@H]1C[C@H](O)[C@@]1(C)C(=O)[C@H](O)C3=C(C)[C@@H](OC(=O)[C@H](O)[C@@H](NC(=O)OC(C)(C)C)c4ccccc4)C[C@@](O)([C@@H](OC(=O)c4ccccc4)[C@H]21)C3(C)C` [Docetaxel] was tested. Which HCT116-GFP viability did it give?
Answer: 22.8%

Question: `Clc1ccc(CSC(Cn2ccnc2)c2ccc(Cl)cc2Cl)cc1` (configuration not stated) [Sulconazole nitrate] was tested. Which HCT116-GFP viability did it give?
Answer: 52.4%

Question: With `C[C@]12CC[C@@H]3c4ccc(O)cc4CC[C@H]3[C@@H]1CC[C@@H]2O` [Estradiol-17 beta] as the compound, how does the HCT116-GFP viability read?
Answer: 97.6%

Question: With `CCCN(CCC)S(=O)(=O)c1ccc(C(=O)O)cc1` [Probenecid] as the compound, how does the HCT116-GFP viability read?
Answer: 103%

Question: `CN(C)CCOC(c1ccccc1)c1ccccc1` [Diphenhydramine hydrochloride] was tested. Which HCT116-GFP viability did it give?
Answer: 93.1%

Question: For `COc1ccc2[nH]c([S+]([O-])Cc3ncc(C)c(OC)c3C)nc2n1` (configuration not stated) [Tenatoprazole], which HCT116-GFP viability is on record?
Answer: 84.9%

Question: For `CC(=O)[C@H]1CC[C@H]2[C@@H]3CCC4=CC(=O)CC[C@]4(C)[C@H]3CC[C@]12C` [Progesterone], which HCT116-GFP viability is on record?
Answer: 82%

Question: Which HCT116-GFP viability does the source give for `CN(C)CC/C=C1/c2ccccc2Sc2ccc(Cl)cc21` [Chlorprothixene hydrochloride] here?
Answer: 63%

Question: For `NC(Cc1cc(I)c(Oc2cc(I)c(O)c(I)c2)c(I)c1)C(=O)O` (configuration not stated) [Thyroxine (L)], which HCT116-GFP viability is on record?
Answer: 59.5%

Question: `CC(=O)Oc1ccccc1C(=O)O` [Acetylsalicylic acid] was tested. Which HCT116-GFP viability did it give?
Answer: 86.9%

Question: With `N=C(N)NS(=O)(=O)c1ccc(N)cc1` [Sulfaguanidine] as the compound, how does the HCT116-GFP viability read?
Answer: 108%

Question: How did the HCT116-GFP viability turn out when `CC1=C(/C=C/C(C)=C/C=C/C(C)=C/C(=O)O)C(C)(C)CCC1` [Retinoic acid] was run?
Answer: 96.3%

Question: With `NC(=O)c1cc[n+](CC2=C(C(=O)[O-])N3C(=O)[C@@H](NC(=O)[C@@H](c4ccccc4)S(=O)(=O)O)[C@H]3SC2)cc1` [Cefsulodin sodium salt] as the compound, how does the HCT116-GFP viability read?
Answer: 101%

Question: With `CCc1c(C)[nH]c2c1C(=O)C(CN1CCOCC1)CC2` (configuration not stated) [Molindone hydrochloride] as the compound, how does the HCT116-GFP viability read?
Answer: 82.8%

Question: How did the HCT116-GFP viability turn out when `CCC1(c2ccccc2)NC(=O)N(C)C1=O` (configuration not stated) [Mephenytoin] was run?
Answer: 80.1%

Question: Which HCT116-GFP viability does the source give for `CC1(C)[C@H](C(=O)O)N2C(=O)C[C@H]2S1(=O)=O` [Sulbactam] here?
Answer: 80.1%

Question: Which HCT116-GFP viability does the source give for `Cc1ncc(CO)c(CO)c1O` [Pyridoxine hydrochloride] here?
Answer: 92.8%

Question: How did the HCT116-GFP viability turn out when `C#C[C@]1(OC(C)=O)CC[C@H]2[C@@H]3CCC4=CC(=NO)CC[C@@H]4[C@H]3CC[C@@]21CC` (mixture of isomers) [Norgestimate] was run?
Answer: 74.4%

Question: With `Clc1ccc(CO/N=C(\Cn2ccnc2)c2ccc(Cl)cc2Cl)c(Cl)c1` [Oxiconazole Nitrate] as the compound, how does the HCT116-GFP viability read?
Answer: 75%

Question: `CC(=O)O[C@]1(C(C)=O)CC[C@H]2[C@@H]3C=C(Cl)C4=CC(=O)[C@@H]5C[C@@H]5[C@]4(C)[C@H]3CC[C@@]21C` [Cyproterone acetate] was tested. Which HCT116-GFP viability did it give?
Answer: 92.2%

Question: With `N[C@@H]1CONC1=O` [D-cycloserine] as the compound, how does the HCT116-GFP viability read?
Answer: 107%

Question: Which HCT116-GFP viability does the source give for `O=C(O)COCCN1CCN(C(c2ccccc2)c2ccc(Cl)cc2)CC1` (configuration not stated) [Cetirizine dihydrochloride] here?
Answer: 89.4%

Question: Which HCT116-GFP viability does the source give for `COc1cc2nc(N(C)CCCNC(=O)C3CCCO3)nc(N)c2cc1OC` (configuration not stated) [Alfuzosin hydrochloride] here?
Answer: 109%

Question: Which HCT116-GFP viability does the source give for `Clc1ccc(Cn2c(CN3CCCC3)nc3ccccc32)cc1` [Clemizole hydrochloride] here?
Answer: 89.1%

Question: `CC1(C)S[C@@H]2[C@H](NC(=O)[C@H](NC(=O)N3CCNC3=O)c3ccccc3)C(=O)N2[C@H]1C(=O)O` [Azlocillin sodium salt] was tested. Which HCT116-GFP viability did it give?
Answer: 86.4%

Question: For `CC(C)c1ccc2oc3nc(N)c(C(=O)O)cc3c(=O)c2c1` [Amlexanox], which HCT116-GFP viability is on record?
Answer: 80.4%

Question: For `COC(=O)Nc1nc2cc(C(=O)c3ccccc3)ccc2[nH]1` [Mebendazole], which HCT116-GFP viability is on record?
Answer: 10.7%

Question: Which HCT116-GFP viability does the source give for `Cc1cc2c(cc1S(N)(=O)=O)S(=O)(=O)CCC2` [Meticrane] here?
Answer: 96.7%

Question: For `NCCNCCNCCNCCN` [Tetraethylenepentamine pentahydrochloride], which HCT116-GFP viability is on record?
Answer: 85.5%

Question: Which HCT116-GFP viability does the source give for `Cc1onc(-c2c(Cl)cccc2Cl)c1C(=O)N[C@@H]1C(=O)N2[C@@H]1SC(C)(C)[C@@H]2C(=O)O` [Dicloxacillin sodium salt hydrate] here?
Answer: 104%

Question: How did the HCT116-GFP viability turn out when `CN1C(C)(C)CCCC1(C)C` [Pempidine tartrate] was run?
Answer: 101%

Question: Which HCT116-GFP viability does the source give for `C[N+](C)(C)CCCCCC[N+](C)(C)C` [Hexamethonium dibromide dihydrate] here?
Answer: 96.8%

Question: For `CC[N+](C)(C)Cc1ccccc1Br` [Bretylium tosylate], which HCT116-GFP viability is on record?
Answer: 81.5%

Question: How did the HCT116-GFP viability turn out when `CN(C)/N=N/c1[nH]cnc1C(N)=O` [Dacarbazine] was run?
Answer: 54.4%

Question: For `COc1ccc(C(Cl)=C(c2ccc(OC)cc2)c2ccc(OC)cc2)cc1` [Chlorotrianisene], which HCT116-GFP viability is on record?
Answer: 86.8%

Question: With `Cc1oncc1C(=O)Nc1ccc(C(F)(F)F)cc1` [Leflunomide] as the compound, how does the HCT116-GFP viability read?
Answer: 61.9%

Question: For `O=C(O)c1cccnc1Nc1cccc(C(F)(F)F)c1` [Niflumic acid], which HCT116-GFP viability is on record?
Answer: 111%

Question: Which HCT116-GFP viability does the source give for `CC(CCc1ccccc1)NCC(O)c1ccc(O)c(C(N)=O)c1` (configuration not stated) [Labetalol hydrochloride] here?
Answer: 103%

Question: Which HCT116-GFP viability does the source give for `CCOC(=O)[C@H](CCc1ccccc1)N[C@@H](C)C(=O)N1Cc2ccccc2C[C@H]1C(=O)O` [Quinapril hydrochloride] here?
Answer: 109%

Question: For `NS(=O)(=O)c1cc(C(=O)O)cc(N2CCCC2)c1Oc1ccccc1` [Piretanide], which HCT116-GFP viability is on record?
Answer: 86.1%

Question: For `CN(C)CCCN1c2ccccc2Sc2ccccc21` [Promazine hydrochloride], which HCT116-GFP viability is on record?
Answer: 98.5%

Question: Which HCT116-GFP viability does the source give for `Cc1cc(C(C)(C)C)c(O)c(C)c1CC1=NCCN1` [Oxymetazoline hydrochloride] here?
Answer: 92.2%
